From PubChem BioAssay (Tox21)
The shares of active, inactive and inconclusive entries below differ from those in the screen. For some of these results: Potencies of inconclusive entries are doubtful fits and often do not repeat. A structure can be active in one record and inactive in another. Activity calls are given as the source filed them. Unless noted, calls come from the whole dose curve; as a rule, active = well fitted curve in the direction sought with a large enough effect in the repeat runs; inconclusive = weak or mixed curves; inactive = no such curve, though single readings can be large; an effect the other way counts as inactive or inconclusive.

Legend:
[1] = qHTS assay to identify small molecule agonists of the estrogen receptor alpha (ER-alpha) signaling pathway in the presence of an antagonist - cell viability counter screen (AID 1259386);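 note: cells exposed to compounds for 22 h at 37 °C before the viability read; nearly all actives have a fitted effect of over 30% in size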; note: potency is the fitted concentration of half-maximal effect
Procedure, shortened: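 Fluorescent CellTiter-Fluor viability signal from VM7Luc4E2 cells, with the reagent added during the final hour of a 22hr compound exposure at 37C in the presence of 10.0nM ICI-182,780.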

[2] = qHTS assay to identify small molecule agonists of the TGF-beta/Smad signaling pathway (AID 1346859; active = well fitted activation curve with a large enough effect in the signal ratio in the repeat runs, not every such curve was filed as active; inconclusive = weak or mixed curves; the % refers to the signal ratio; note: potency is the fitted concentration of half-maximal effect; for activation: % is set by controls: 0 for no effect and ±100 for the full control effect); settings: SBE-bla HEK293T, TGF-beta/Smad beta-lactamase reporter, 5 h; activation: at 76.8 µM (top of the series) unless noted
Procedure, shortened: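 HEK 293T cells stably carrying a beta-lactamase reporter driven by the Smad binding element were seeded overnight, exposed to DMSO-dissolved compounds for 5 hr at 37 C, 5% CO2, then loaded with FRET substrate for 2 hr at room temperature.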

[3] = qHTS assay to identify small molecule antagonists of the progesterone receptor (PR) signaling pathway - cell viability counter screen (AID 1346798); note: nearly all actives have a fitted effect of over 50% in size; note: potency is the fitted concentration of half-maximal effect
Procedure, shortened: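 PR-UAS-bla HEK293T cells in medium with 2% charcoal-stripped FBS were treated with compounds plus R5020 for 16 hr at 37C. Cell viability was then read by CellTiter-Glo luminescence after 30 min at room temperature in the same wells.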

[4] = biological target: Progesterone receptor (Homo sapiens) (UniProt P06401); test: qHTS assay to identify small molecule agonists of the progesterone receptor (PR) signaling pathway (AID 1346784; calls by dose curve; note: nearly all actives have a fitted effect of over 30% in size; note: potency is the fitted concentration of half-maximal effect; for activation: % is set by controls: 0 for no effect and ±100 for the full control effect); settings: PR-UAS-bla HEK293T, beta-lactamase FRET ratio, 16 h; activation: at 92.4 µM (top of the series) unless noted
Sequence of UniProt P06401 (P06401 whole entry, looked up): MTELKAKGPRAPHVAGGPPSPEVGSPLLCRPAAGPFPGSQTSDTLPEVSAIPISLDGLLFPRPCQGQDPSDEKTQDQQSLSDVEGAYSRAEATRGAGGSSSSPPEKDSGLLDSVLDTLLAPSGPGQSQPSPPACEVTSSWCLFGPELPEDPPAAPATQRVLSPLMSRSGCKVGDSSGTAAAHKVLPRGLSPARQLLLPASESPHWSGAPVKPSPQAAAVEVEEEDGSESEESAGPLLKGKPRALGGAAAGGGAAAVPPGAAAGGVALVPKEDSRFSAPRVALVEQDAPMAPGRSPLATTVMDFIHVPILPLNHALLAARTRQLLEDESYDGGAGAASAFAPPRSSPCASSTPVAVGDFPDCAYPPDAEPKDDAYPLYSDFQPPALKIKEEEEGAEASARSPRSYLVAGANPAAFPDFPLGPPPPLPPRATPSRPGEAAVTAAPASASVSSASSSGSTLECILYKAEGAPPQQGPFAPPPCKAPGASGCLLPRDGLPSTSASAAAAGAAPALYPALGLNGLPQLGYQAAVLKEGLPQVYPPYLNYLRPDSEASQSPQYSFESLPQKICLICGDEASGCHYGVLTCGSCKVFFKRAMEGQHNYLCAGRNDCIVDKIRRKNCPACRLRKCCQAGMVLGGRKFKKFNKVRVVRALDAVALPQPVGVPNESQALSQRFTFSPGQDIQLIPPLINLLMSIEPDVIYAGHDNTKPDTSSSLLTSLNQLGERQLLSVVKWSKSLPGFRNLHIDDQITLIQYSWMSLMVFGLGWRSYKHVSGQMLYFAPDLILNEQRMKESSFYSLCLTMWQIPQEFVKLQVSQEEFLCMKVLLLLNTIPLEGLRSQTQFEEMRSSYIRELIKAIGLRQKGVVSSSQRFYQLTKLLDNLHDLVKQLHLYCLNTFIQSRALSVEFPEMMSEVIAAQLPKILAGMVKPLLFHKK
Procedure, shortened: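 PR-UAS-bla HEK 293T cells carrying a UAS-driven beta-lactamase reporter were seeded in medium with 2% charcoal-stripped FBS, preincubated 6 hr at 37C, then exposed to compounds in DMSO for 16 hr; agonism was read by LiveBLAzer B/G FRET fluorescence.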

[5] = qHTS assay to identify small molecule agonists of the progesterone receptor (PR) signaling pathway - cell viability counter screen (AID 1346799; calls by dose curve; note: nearly all actives have a fitted effect of over 45% in size; note: potency is the fitted concentration of half-maximal effect)
Procedure, shortened: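 PR-UAS-bla HEK293T cells, 3,000 per well in medium with 2% charcoal-stripped FBS, were preincubated 6 hr at 37C, then exposed to compounds for 16 hr; viability was read as CellTiter-Glo luminescence after 30 min at room temperature.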

[6] = qHTS assay to identify small molecule antagonists of the TGF-beta/Smad signaling pathway - cell viability counter screen (AID 1346824); note: nearly all actives have a fitted effect of over 50% in size; note: potency is the fitted concentration of half-maximal effect
Procedure, shortened: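 SBE-bla HEK 293T cells were plated overnight at 37 C, then given compounds in DMSO plus TGF-beta1 (added as 0.25 ng/mL solution) for 5 hr. After the bla read, CellTiter-Glo was added to the same wells and luminescence read after 30 min at room temperature.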

[7] = qHTS assay to identify small molecule agonists of the TGF-beta/Smad signaling pathway - cell viability counter screen (AID 1346829); note: potency is the fitted concentration of half-maximal effect; nearly all actives have a fitted effect of over 45% in size
Procedure, shortened: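 HEK 293T SBE-bla line, 5 hr compound exposure at 37 C, multiplexed CellTiter-Glo viability read by luminescence.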

[8] = biological target: Progesterone receptor (Homo sapiens) (UniProt P06401); test: qHTS assay to identify small molecule antagonists of the progesterone receptor (PR) signaling pathway (AID 1346795; active = well fitted inhibition curve with a large enough effect in the signal ratio in the repeat runs, not every such curve was filed as active; inconclusive = weak or mixed curves; the % refers to the signal ratio; note: potency is the fitted concentration of half-maximal effect; for activity change, negative = inhibition: % is set by controls: 0 for no effect and ±100 for the full control effect); settings: PR-UAS-bla HEK293T, beta-lactamase FRET ratio, 16 h
Procedure, shortened: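 PR-UAS-bla HEK293T cells carrying a UAS-driven beta-lactamase reporter were plated in medium with 2% charcoal-stripped FBS and rested 6 hr at 37C. Compounds were added with 1 nM R5020 (final) for 16 hr, then FRET substrate loaded 2 hr at room temperature.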

[9] = qHTS assay to identify small molecule antagonists of the TGF-beta/Smad signaling pathway (AID 1346924; active = well fitted inhibition curve with a large enough effect in the signal ratio in the repeat runs, not every such curve was filed as active; inconclusive = weak or mixed curves; the % refers to the signal ratio); settings: SBE-bla HEK293T, TGF-beta/Smad reporter, beta-lactamase ratio; activity, negative = inhibition: at 76.8 µM (top of the series) unless noted
Procedure, shortened: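 SBE-bla HEK 293T cells were plated overnight, then received compound in DMSO plus TGF-beta1 (added as a 0.25 ng/mL solution) and were incubated 5 h at 37 C. Beta-lactamase reporter activity was read after 2 h at room temperature with LiveBLAzer B/G FRET substrate (ex 405, em 460/530 nm).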

[10] = activity change, negative = inhibition: at 92.4 µM (top of the series) unless noted
Tags give direction and shape of the fitted curve or compound fluorescence and quenching.

CN1CC(=O)N2[C@H](c3ccc4c(c3)OCO4)c3[nH]c4ccccc4c3C[C@@H]2C1=O
Potency [1]: inconclusive: 26.6 µM [cytotoxic, single point]
Potency [2]: inactive

NC(=O)c1cccnc1
Potency [1]: inactive
Potency [3]: inconclusive: 0.755 µM [rising, partial curve]

O=C1CCc2ccc(OCCCCN3CCN(c4cccc(Cl)c4Cl)CC3)cc2N1
Potency [1]: active: 29.8 µM
activation [4]: inconclusive: -15.1% [at 42.5 µM]
Potency [3]: inconclusive: 33.5 µM [cytotoxic, single point]
Potency [5]: inconclusive: 33.5 µM [cytotoxic, single point]
Potency [6]: inconclusive: 26.8 µM [cytotoxic, single point]
Potency [7]: inconclusive: 26.8 µM [cytotoxic, single point]
Potency [2]: inconclusive: 21.3 µM [rising, single point]

Cc1cccc(O)c1C
Potency [4]: active: 24.2 µM
Potency [8, 10]: inactive
Potency [3]: inconclusive: 31.5 µM [cytotoxic, single point]
Potency [5]: inconclusive: 54.1 µM [rising, partial curve, poor fit]

Cc1ncc(CO)c(CO)c1O
activity change, negative = inhibition ([8]; at 42.5 µM (top of the series)): inactive: 7.85%
activity change, negative = inhibition ([8]; at 92.4 µM (top of the series)): inactive: 11%

C=C(C)CC(C)(C)C
activity change, negative = inhibition ([8]; at 92.4 µM (top of the series)): inactive: 1.46%

CC(C)C=O
Potency [3]: inactive

CC(C)C(O)(c1ccc(OC(F)(F)F)cc1)c1cncnc1 (centres undefined)
Potency [3]: inactive

CCCCCCCCCC=O
Potency [3]: inactive
Potency [2]: inconclusive: 49 µM [rising, partial curve, poor fit]

CSC(=O)c1cccc2nnsc12
Potency [8, 10]: inconclusive: 54.5 µM [falling, partial curve]
Potency [3]: inactive
Potency [5]: inconclusive: 0.217 µM [cytotoxic, single point]

CCC(O)C(C)(C)C (centres undefined)
Potency [3]: inactive

CC(=O)OC/C=C(/C)CCC=C(C)C
Potency [3]: inactive

CCCCCCCCCCCCCCCC
Potency [8, 10]: inactive
Potency [3]: inconclusive: 27.3 µM [rising, single point]

CCCOC(=O)NCCCN(C)C
Potency [3]: inactive

O=C1NS(=O)(=O)c2ccccc21
activity change, negative = inhibition [8, 10]: inconclusive: 13.7%
Potency [3]: inactive

Cc1cc(C)c(N)cc1C
Potency [5]: inactive

COc1cccc(OC)c1C(=O)N[C@@H]1C(=O)N2[C@@H]1SC(C)(C)[C@@H]2C(=O)O
Potency [8, 10]: inconclusive: 16.8 µM [rising, partial curve, poor fit]
Potency [3]: inconclusive: 18.8 µM [cytotoxic, partial curve, poor fit]

Cc1cccc(C)c1OCC(C)N (centres undefined)
Potency [8, 10]: inactive
Potency [5]: inactive

CC[N+](C)(CC)CCOC(=O)C1c2ccccc2Oc2ccccc21
Potency [3]: inactive

NNCCc1ccccc1
activity change, negative = inhibition [8, 10]: inconclusive: -34.7%
Potency [3]: inconclusive: 1.94 µM [rising, partial curve, poor fit]
Potency [5]: inconclusive: 2.37 µM [cytotoxic, full curve]

O=C1OC[C@H](Cc2cccc(O)c2)[C@H]1Cc1cccc(O)c1
Potency [5]: inconclusive: 20.7 µM [rising, single point]

CC1(C)[C@@H](O[C@H]2O[C@H](C(=O)O)[C@@H](O)[C@H](O)[C@H]2O[C@@H]2O[C@H](C(=O)O)[C@@H](O)[C@H](O)[C@H]2O)CC[C@]2(C)[C@H]3C(=O)C=C4[C@@H]5C[C@@](C)(C(=O)O)CC[C@]5(C)CC[C@@]4(C)[C@]3(C)CC[C@@H]12
Potency [3]: inactive
activity, negative = inhibition [9]: inconclusive: 8.45% [at 35.3 µM]

COC(=O)c1c(C)cc(O)c(C)c1O
Potency [8, 10]: active: 19.3 µM
Potency [5]: inconclusive: 30.6 µM

CC(C)c1cccc(C(C)C)c1N
Potency [5]: inactive

c1ccc2sc(SN(C3CCCCC3)C3CCCCC3)nc2c1
Potency [8, 10]: inconclusive: 30.3 µM [rising, partial curve]
Potency [6]: inactive
